Assay results from the supplement of paper PMC11417369.
This is one part of the list.

Each sequence was assayed on PfSIP2 AP2 domain 1 (GST-tagged) (assay: gcPBM binding intensity (ln(normalized median fluorescence intensity)); higher = stronger DNA binding).
How it was run: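 DNA-binding domains from P. falciparum, fused to GST and produced in E. coli, were put on an Agilent 4 × 180k double-stranded probe array for 1 h in 1× PBS holding 1% milk, 0.2 mg/ml BSA, 0.5% salmon testes DNA and 0.03% Triton X-100. Probes were primer-extended, 36 bp long and drawn from intergenic genomic regions, with negative controls included. After Alexa488 anti-GST antibody detection and a 488 nm scan, binding intensity was set as the highest Masliner-normalised natural-log median intensity across replicate spots of either probe orientation.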
For “TATAAAATAAGACATGCATGTTATACATATATATAT [TGCATGCA_site314]”, the “gcPBM binding intensity (ln)” value was 8.81. In the case of “TGAACAATGTATAATTGTACGCAACGAAAATAAAAA [XGTACX_site1559]”, the “gcPBM binding intensity (ln)” value is reported as 7.21. In the case of “ATCATGTTATATATGTGTACATATATATGATATAAT [XGTACX_site991]”, the “gcPBM binding intensity (ln)” value is reported as 7.18. In the case of “ATTATAAATTAAAATACACACATATATACCTAATAT [CACACA_site5541]”, the “gcPBM binding intensity (ln)” value is reported as 7.07. For “ATATATAATTACACAAATAAAAAAATAAAATGAAAT [CACACA_negctrl_site1513]”, the “gcPBM binding intensity (ln)” value was 6.85. With “AGAATAAAAATACAAGCACACATGTATGAAATATAT [CACACA_site3213]” the “gcPBM binding intensity (ln)” value was 6.91. For “AAAAAATAATAATAATGTACAAATAAAATAAAAACA [XGTACX_site6568]”, the “gcPBM binding intensity (ln)” value was 7.19. “AAGGAATATGTATATACACACAGGTACATATATATA [CACACA_site441]” was tested, and the “gcPBM binding intensity (ln)” value was 7.36. In the case of “TCGTGTGAAAATATTACACACATTTACTATAGTATC [CACACA_site7590]”, the “gcPBM binding intensity (ln)” value is reported as 6.89. With “ATAAAAATTGAAACATGTACACATATTCATTTTATA [XGTACX_site7968]” the “gcPBM binding intensity (ln)” value was 6.73. With “ATATATTTTTACCATACACACATATAATAAATATAT [CACACA_site3722]” the “gcPBM binding intensity (ln)” value was 7.35. For “AAAAAAAAAAAAAAATGTACATATATATATATATAT [XGTACX_site876]”, the “gcPBM binding intensity (ln)” value was 9.33. For “ATAATAATATTGTGTACACAATAATTTGTCAAATCA [CACACA_site6019]”, the “gcPBM binding intensity (ln)” value was 7.3. With “ACATATACAAGACACACACACAACGTTTTAATAAAT [CACACA_site7017]” the “gcPBM binding intensity (ln)” value was 7.51. With “TATTTTTTTCTTACTACACACATATATATGCTTTCC [CACACA_site4058]” the “gcPBM binding intensity (ln)” value was 7.3. In the case of “TTATATTATACATACACACCCATATAACATGTTTTT [CACACA_site6539]”, the “gcPBM binding intensity (ln)” value is reported as 7.31. “TCATTAATATTTCATAGTACAATTTTGTCTAATTGT [XGTACX_site6720]” was tested, and the “gcPBM binding intensity (ln)” value was 6.91. In the case of “TAATGTTGAGAATTTTGTACATATAGATCAATTTAT [XGTACX_site5426]”, the “gcPBM binding intensity (ln)” value is reported as 6.84. In the case of “ATTTATTATGAACATACACACAAAAAAAAAAAGTAT [CACACA_site2054]”, the “gcPBM binding intensity (ln)” value is reported as 7.13. With “TAACTTTGAAAAGATGGTACACAATAATATATATAT [XGTACX_site8667]” the “gcPBM binding intensity (ln)” value was 8.48. “GTATATTTTAATATGACACACATATTATATATATAT [CACACA_site2483]” was tested, and the “gcPBM binding intensity (ln)” value was 8.74. For “TGACATAAAAAATATACACACTATAATATATATACT [CACACA_site4898]”, the “gcPBM binding intensity (ln)” value was 6.92. “AATCAATTAATATTAGCATAAAATTTTATTATTTTG [XGTACX_negctrl_site479]” was tested, and the “gcPBM binding intensity (ln)” value was 6.75. For “TGTATCCATATTTGTTCACACACACCCATATTTATA [CACACA_site9190]”, the “gcPBM binding intensity (ln)” value was 7.27. “ATAATATGTATGGTCACACAGACAAGGAAAGAATAA [CACACA_site5164]” was tested, and the “gcPBM binding intensity (ln)” value was 7.16. For “AAAAAAAAAAATAAAGAAATCAAAATTGATGAATAA [GTGCAC_negctrl_site692]”, the “gcPBM binding intensity (ln)” value was 6.64. In the case of “TGTGTAAACATATTCACACACATAAATTCGCATATA [CACACA_site6961]”, the “gcPBM binding intensity (ln)” value is reported as 6.81. In the case of “TATATAAAAAATAAATGTACACATGTAATAATAAAA [XGTACX_site2640]”, the “gcPBM binding intensity (ln)” value is reported as 7.25. For “TATAAATATACACCCACACACATATATATATATATA [CACACA_site3745]”, the “gcPBM binding intensity (ln)” value was 9.29. For “TATATATATTTATGCTGTACCAAATAAGAATAGAAA [XGTACX_site7731]”, the “gcPBM binding intensity (ln)” value was 7.26. With “ATATGAACAAAATAAATCTCTTCAAAAATAATGTTC [GTGCAC_negctrl_site2]” the “gcPBM binding intensity (ln)” value was 6.82. In the case of “TAAATGATTGCATAATGTACATATAATTTTTTTTTT [XGTACX_site1988]”, the “gcPBM binding intensity (ln)” value is reported as 6.96. With “AGCACAAGCACAAGCACACATTTATATATAAATACA [CACACA_site4642]” the “gcPBM binding intensity (ln)” value was 7.01. “ACAAAATATACAAAATGTACAAAATTTACAAAATAT [XGTACX_site6466]” was tested, and the “gcPBM binding intensity (ln)” value was 7.02. “TACCCATGCATTTTTGCACACACATATATATATAAA [CACACA_site1429]” was tested, and the “gcPBM binding intensity (ln)” value was 8.32. In the case of “AGACAGCGCACAAACACACAAACACCCACCCACATA [CACACA_site451]”, the “gcPBM binding intensity (ln)” value is reported as 7.15. In the case of “TACTTACATATAATAACACACAAGAAAAAAATAAAA [CACACA_site1033]”, the “gcPBM binding intensity (ln)” value is reported as 7.15. For “ATTTTTGTACACTTCTTTTTTTTTTTTCTTTTATGT [CACACA_negctrl_site1323]”, the “gcPBM binding intensity (ln)” value was 7.11. With “TATTATCTCTTATGAACACACATTTTTATTTTCAAA [CACACA_site3353]” the “gcPBM binding intensity (ln)” value was 6.92. With “ATATCGTATATGAGTGGTACTAATATGTAAAAAAAA [XGTACX_site7830]” the “gcPBM binding intensity (ln)” value was 7.01. In the case of “AAAGTTATAATACGTACACACCTTATCTTTTTGGCT [CACACA_site6267]”, the “gcPBM binding intensity (ln)” value is reported as 6.99. For “TTTATGGGTATGTTTACACACATAAAAAAATATATG [CACACA_site5646]”, the “gcPBM binding intensity (ln)” value was 6.9. In the case of “ATATATATGAAAATATGTACATATATATATATATAA [XGTACX_site7550]”, the “gcPBM binding intensity (ln)” value is reported as 7.3. In the case of ATATAAGTATTTTGAATGCACTTTCTTTTTTTTTTT, the “gcPBM binding intensity (ln)” value is reported as 8.3. In the case of “ACTGAAAAAAGAAATACACACATTCTGGATCATATA [CACACA_site3860]”, the “gcPBM binding intensity (ln)” value is reported as 6.79. With “TTATAAAATAATTAATGTACGTTTATGTGTATCGAA [XGTACX_site6117]” the “gcPBM binding intensity (ln)” value was 7.13. In the case of “AACGATATCTGTACTACACACATTATGTCATCCTAT [CACACA_site5374]”, the “gcPBM binding intensity (ln)” value is reported as 7.14. In the case of “AATATTAAAAACAAAACACACAAAAAAAAATAAACT [CACACA_site6470]”, the “gcPBM binding intensity (ln)” value is reported as 7.09. For “ATTAACACTGAAAAATGTACATATATAAATATAAGC [XGTACX_site8222]”, the “gcPBM binding intensity (ln)” value was 7.05. With “TAAAATAATACAAAATGTACAAAATTTACAAAATGT [XGTACX_site3541]” the “gcPBM binding intensity (ln)” value was 6.95. In the case of “ATGTAAATTAAACATGGTACACATTATACAAAATTA [XGTACX_site5675]”, the “gcPBM binding intensity (ln)” value is reported as 6.95. With “AATATAGAACAATGTTGTACATATAATAATCTTATA [XGTACX_site4671]” the “gcPBM binding intensity (ln)” value was 6.86. “TAATAATAAAAATAAACACACATATAGATGTATATA [CACACA_site7360]” was tested, and the “gcPBM binding intensity (ln)” value was 6.75. In the case of “ATTTTGTTCGAAAGGTGTACATATACAAAAATTATG [XGTACX_site957]”, the “gcPBM binding intensity (ln)” value is reported as 7.49. In the case of “ATTGCTTTTCTTTTTGCACACTTATGCATATATATA [CACACA_site2584]”, the “gcPBM binding intensity (ln)” value is reported as 10.2. With “AGCACACCCACAAAAACACACACAAAGGTGTTCTTA [CACACA_site8355]” the “gcPBM binding intensity (ln)” value was 6.99. In the case of “TCATTATTATTCCTCACACATATATATATATATATT [CACACA_site4375]”, the “gcPBM binding intensity (ln)” value is reported as 7.42.
